Source: PubChem BioAssay AID463173 (ICCB-Longwood Screening Facility, Harvard Medical School, 2010)
Screen size: about 52,000 compounds; about 1,700 (3.3%) were called active. Cut-off read from the data, not from the text of the source: active = survival mostly below about 52% (no sharp cut-off); inactive = mostly above about 56%. This is one part of the list.

These compounds were tested on Wild type (assay: growth inhibition of S. aureus wild type versus tarO mutant, primary screen, teichoic acid synthesis inhibitors, RN4220, OD600 (AID 463173)). Details: S. aureus RN4220 wild type/DeltatarO growth, OD600, 18 h, stronger effect = lower value, screened at 18.75 µg/mL (by protocol).

Row | Compound | survival
1 | COc1ccc(N2CCN(C(CNC(=O)CC(C)C)c3ccc4c(c3)OCO4)CC2)cc1 (stereo not given) | inactive: 83%
2 | CCc1cccc(CC)c1NC(=O)Cn1nnc2sc(-c3ccccc3)cc2c1=O | inactive: 87%
3 | CCCC(=O)Nc1ccc(Cl)c(NC(=O)c2cccnc2Cl)c1 | inactive: 114%
4 | CCCCOc1ccc(C2=NC(c3ccncc3)=Nc3ccc(Br)cc3N2)cc1 | active: -4%
5 | CS(=O)(=O)N(CC(=O)N1CCN(Cc2ccc3c(c2)OCO3)CC1)Cc1ccccc1 | inactive: 102%
6 | Cc1ccc(-c2nc3ccc(Cl)cn3c2Nc2ccc3c(c2)OCCO3)o1 | inactive: 88%
7 | COc1ccc(-c2nc(CS(=O)CC(=O)NCc3ccc(F)cc3)c(C)o2)cc1OC (stereo not given) | inactive: 80%
8 | Cc1c(Cl)cccc1-n1ncc(C(=O)N2CCc3ccccc3C2)c1C1CCN(C(=O)OC(C)(C)C)CC1 | inactive: 80%
9 | Cc1cccc2cc(C#N)c(SCC(=O)NCC3CCCO3)nc12 (stereo not given) | inactive: 103%
10 | CCOc1ccccc1N(CC)C(=O)Nc1cn(C)c(=O)c2ccccc12 | inactive: 78%
11 | COc1ccc(OCC(=O)Nc2ccc(C(=O)OCc3cc(=O)n4nc(C)sc4n3)cc2)cc1 | inactive: 119%
12 | CCCCCn1c(=O)[nH]c2cc(C(=O)N3CCN(c4ccccc4)CC3)ccc2c1=O | inactive: 85%
13 | Cc1ccc(/C=C/c2onc(C)c2S(=O)(=O)N2CCC(C(=O)N3CC(C)Oc4ccccc43)CC2)cc1 (stereo not given) | inactive: 135%
14 | CC1=C(C#N)C(=O)NC(C)(C)C1 | inactive: 108%
15 | CCc1ccc(NC(=O)CC2C(=O)N(c3cccc(OC)c3)C(=O)N2Cc2ccco2)cc1 (stereo not given) | inactive: 19%
16 | CCOc1ccccc1NC(=O)Nc1nnc(N(C)Cc2ccccc2)s1 | inactive: 84%
17 | COc1ccc2c(c1)cc1c(=O)n(CC(=O)NC3CCCCC3)nc(C)n12 | inactive: 79%
18 | Cc1ccc(NC(=O)c2oc3ccccc3c2NC(=O)Cc2cccs2)cc1 | inactive: 57%
19 | CC(=O)N1CCC(N(C(=O)Nc2ccc(C)c(F)c2)C(C)C)CC1 | inactive: 83%
20 | COc1cc(Cl)c(NS(=O)(=O)c2ccc3c(c2)CC(C)N3C(=O)C2CCC2)c(OC)c1 (stereo not given) | inactive: 99%
21 | Cc1ccc(C(Nc2ccccn2)c2ccc3cccnc3c2O)cc1 (stereo not given) | active: 6%
22 | CSc1nnc(C2CCCN2)n1C (stereo not given) | inactive: 102%
23 | COc1ccccc1NC(=O)CCS(=O)(=O)c1ccc2nc(C)sc2c1 | inactive: 88%

Row | Compound | survival
24 | COc1cc(Cl)c(C)cc1NC(=O)CCc1c(C)nc2cc(-c3cccc(F)c3)nn2c1C | inactive: 77%
25 | CCc1c(C)sc2c1CCN(C(=O)Nc1ccccc1C(F)(F)F)C2c1ccccc1 (stereo not given) | inactive: 79%
26 | Cc1ccccc1NC(=O)c1c(NC(=O)C(C)Oc2cccc(Cl)c2)sc2c1CCCC2 (stereo not given) | inactive: 61%
27 | CCn1c(C(=O)N2CCCC(C(=O)NCCCOC)C2)cc2sccc21 (stereo not given) | inactive: 84%
28 | CC1CC(C)(C)NC(=S)O1 (stereo not given) | inactive: 110%
29 | O=C(CCn1cnc2onc(-c3ccc(F)cc3)c2c1=O)N1CCN(c2ccc(F)cc2)CC1 | inactive: 98%
30 | COc1ccccc1CNC(=O)CC1N=C2c3ccccc3N=C(SCC(=O)Nc3ccc(F)cc3)N2C1=O (stereo not given) | inactive: 140%
31 | O=C(c1nc(-c2ccc(Cl)cc2)n2c1CCCCC2)N1CCN(c2ccccc2F)CC1 | inactive: 68%
32 | COc1cc(NC(=O)c2c(-c3ccc(C)cc3)nnc3ccccc23)cc(OC)c1OC | inactive: 97%
33 | Cc1oc2c(c1C(=O)Nc1cccc(Br)c1)C1=NCCN1C=N2 | inactive: 83%
34 | Cc1cc2cc(C(c3nnnn3Cc3ccco3)N3CCN(C(=O)c4ccco4)CC3)c(=O)[nH]c2cc1C (stereo not given) | inactive: 110%
35 | COc1ccccc1Nc1nn2c(=O)c3ccc(C(=O)N4CCC(C)CC4)cc3nc2s1 | inactive: 64%
36 | COc1ccc(S(=O)(=O)Nc2cccc(-c3ccc(N4CCOCC4)nn3)c2)cc1F | inactive: 63%
37 | O=C(Cn1nc(-c2ccccc2)ccc1=O)NCc1ccc(F)cc1Cl | inactive: 129%
38 | Cc1nc2scc(C)n2c(=O)c1S(=O)(=O)NCc1ccccc1Cl | inactive: 168%
39 | O=C1NN=C(Cc2ccccc2)C1CCO (stereo not given) | inactive: 101%
40 | CC1=C(C(=O)OC2CCCC2)C(c2ccc(F)cc2F)CC(=O)N1 (stereo not given) | inactive: 99%
41 | Cc1ccc(CS(=O)(=O)c2cn(CC(=O)N(C)c3ccccc3)c3ccccc23)cc1 | inactive: 93%
42 | O=C1C2C3c4ccccc4C(c4ccccc43)C2C(=O)N1Cc1ccccn1 (stereo not given) | inactive: 111%
43 | CC(=O)Nc1ccc(NC(=O)CCCc2nc(-c3ccc(C(C)(C)C)cc3)no2)cc1 | inactive: 82%
44 | CC(=O)c1ccc(N2C(=O)N(Cc3cccc(C(F)(F)F)c3)c3ccccc3S2(=O)=O)cc1 | inactive: 77%
45 | COc1ccc(N(Cc2cccs2)C(=O)c2ccccc2C)cc1 | inactive: 87%
